The supplement of paper PMC12297408
Counter-ions that a name gives are not always drawn. About 40 (3%) of roughly 1,300 compounds showed activity. Some of the results follow.

Test system: Plasmodium falciparum NF54/iGP1_RE9H ulg8 stage V gametocytes
Experiment: gametocyte viability (luciferase signal relative to DMSO control) (% of DMSO control); higher = less gametocytocidal activity, active = 50 or less
Settings: exposure time: 72 h
How it was run: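 Compounds from 10 mM DMSO stocks were spotted at nanolitre scale into 96-well plates, and day-12 stage V NF54/iGP1_RE9Hulg8 gametocytes (~2.5% gametocytemia, 3% hematocrit; medium with 0.5% Albumax II) were added to reach 10 µM or 1 µM, one well per concentration. The plates were kept at 37 °C for 72 h. Luminescence was then read on an IVIS Lumina II after mixing 90 µl of culture with 10 µl D-luciferin (30 mg/ml). Viability values are relative to the plate's mean DMSO vehicle signal.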

Compound	gametocyte viability (concentration: 1 µM)	gametocyte viability (concentration: 10 µM)
CCN(CCO)CCCC(C)Nc1ccnc2cc(Cl)ccc12 (stereo not drawn) [Hydroxychloroquine sulfate]	inactive: 83.3	inactive: 80.8
COc1ccc(CC2c3cc(OC)c(OC)cc3CC[N+]2(C)CCC(=O)OCCCCCOC(=O)CC[N+]2(C)CCc3cc(OC)c(OC)cc3C2Cc2ccc(OC)c(OC)c2)cc1OC (stereo not drawn) [Atracurium besylate]	inactive: 84.6	inactive: 86.7
CC(=O)[C@H]1CC[C@H]2[C@@H]3CC=C4C[C@@H](O)CC[C@]4(C)[C@H]3CC[C@]12C [Pregnenolone]	inactive: 87	inactive: 84.4
CC(C)(C)c1ccc(C(O)CCCN2CCC(C(O)(c3ccccc3)c3ccccc3)CC2)cc1 (stereo not drawn) [Terfenadine]	inactive: 91.9	inactive: 96.9
CC(COc1ccccc1)NC(C)C(O)c1ccc(O)cc1 (stereo not drawn) [Isoxsuprine hydrochloride]	inactive: 86.9	inactive: 91.3
CCCCN1CCCCC1C(=O)Nc1c(C)cccc1C (stereo not drawn) [Bupivacaine hydrochloride]	inactive: 92.8	inactive: 95.4
CCOC(=O)NNc1nncc2ccccc12 [Todralazine hydrochloride]	inactive: 86.1	inactive: 76.5
O=C1C(=O)c2ccccc2C(O)=C1C1CCC(c2ccc(Cl)cc2)CC1 (stereo not drawn) [Atovaquone]	inactive: 91.4	inactive: 99.6
C[C@@H]1C[C@H]2[C@@H]3C[C@H](F)C4=CC(=O)C=C[C@]4(C)[C@@]3(F)[C@@H](O)C[C@]2(C)[C@@]1(O)C(=O)COC(=O)C(C)(C)C [Flumethasone pivalate]	inactive: 99.3	inactive: 94.6
Nc1ccc(S(=O)(=O)Nc2ccccn2)cc1 [Sulfapyridine]	inactive: 88.7	inactive: 83.6
COc1ccnc(C[S+]([O-])c2nc3cc(OC(F)F)ccc3[nH]2)c1OC (stereo not drawn) [Pantoprazole sodium]	inactive: 81.3	inactive: 77.2
Nc1ccn([C@@H]2O[C@H](CO)[C@@H](O)[C@@H]2O)c(=O)n1 [Cytarabine]	inactive: 94.5	inactive: 95.5
CN(C)CCCN1c2ccccc2Sc2ccc(Cl)cc21 [Chlorpromazine hydrochloride]	inactive: 87.8	inactive: 80.9
CCOc1ccccc1OC(c1ccccc1)C1CNCCO1 (stereo not drawn) [Reboxetine mesylate]	inactive: 86.6	inactive: 84.5
COc1ccc(CN2CCN(C(c3ccc(F)cc3)c3ccc(F)cc3)CC2)c(OC)c1OC [Lomerizine hydrochloride]	inactive: 83.8	inactive: 81.8
CC(C)(C)NC[C@H](O)COc1ccccc1C1CCCC1 [Penbutolol sulfate]	inactive: 94.6	inactive: 90.7
COc1ccc(C(=O)c2ccccc2O)c(O)c1 [Dioxybenzone]	inactive: 97.9	inactive: 102
Nc1nc2[nH]cc(CCc3ccc(C(=O)N[C@@H](CCC(=O)O)C(=O)O)cc3)c2c(=O)[nH]1 [Pemetrexed disodium]	inactive: 85.1	inactive: 85.6
O=C(OCCOCCO)c1ccccc1Nc1cccc(C(F)(F)F)c1 [Etofenamate]	inactive: 96.6	inactive: 99.6
O=C(O)[C@H]1/C(=C/CO)O[C@@H]2CC(=O)N21 [Potassium clavulanate]	inactive: 91.1	inactive: 87.4
Cc1cnc(C(=O)O)c[n+]1[O-] [Acipimox]	inactive: 82.7	inactive: 86.9
CN[C@@H]1[C@H](O[C@H]2[C@H](O[C@H]3[C@H](O)[C@@H](O)[C@H](NC(=N)N)[C@@H](O)[C@@H]3NC(=N)N)O[C@@H](C)[C@]2(O)CO)O[C@@H](CO)[C@H](O)[C@H]1O [Dihydrostreptomycin sulfate]	inactive: 98.9	inactive: 94
NCc1ccc(S(N)(=O)=O)cc1 [Mafenide hydrochloride]	inactive: 78.7	inactive: 79.5
CCc1oc2ccccc2c1C(=O)c1cc(Br)c(O)c(Br)c1 [Benzbromarone]	inactive: 82.5	inactive: 77.9
CC/C(=C(\c1ccccc1)c1ccc(OCCN(C)C)cc1)c1ccccc1 [Tamoxifen citrate]	inactive: 84.1	inactive: 89.4
C#C[C@]1(O)CC[C@H]2[C@@H]3CCC4=C(CCC(=O)C4)[C@H]3CC[C@@]21C [Norethynodrel]	inactive: 83.2	inactive: 68.7
CCOC(=O)[N-]c1c[n+](N2CCOCC2)no1 [Molsidomine]	inactive: 82.7	inactive: 89.2
CC[N+](CC)(CC)CCOc1cccc(OCC[N+](CC)(CC)CC)c1OCC[N+](CC)(CC)CC [Gallamine triethiodide]	inactive: 85.5	inactive: 86.2
NS(=O)(=O)c1cc2c(cc1Cl)NC(CC1CCCC1)NS2(=O)=O (stereo not drawn) [Cyclopenthiazide]	inactive: 90	inactive: 95.6
